Here are results for 56 molecules from PubChem BioAssay AID463173 (ICCB-Longwood Screening Facility, Harvard Medical School, 2010).

SMILES strings stand for the structures. The whole screen tested about 52,000 compounds, of which about 1,700 (3.3%) were called active. Cut-off read from the data, not from the text of the source: active = survival mostly below about 52% (no sharp cut-off); inactive = mostly above about 56%. The list shows a part of the results.

For this test, the system named is Wild type. The test can be described thus: growth inhibition of S. aureus wild type versus tarO mutant, primary screen, teichoic acid synthesis inhibitors, RN4220, OD600 (AID 463173). To be noted: S. aureus RN4220 wild type/DeltatarO growth, OD600, 18 h, active compounds read low, screened at 18.75 µg/mL (by protocol).
For `Cc1c(CN2CCOCC2)c(=O)n(-c2ccccc2)n1C`, the survival was inactive: 104%.
With `CCOC(=O)c1[nH]c(C)c(CCC(=O)Nc2ccc(C)cc2Cl)c1C` the figure was inactive: 75%.
Next, `O=C(c1ccc(Br)cc1)N1CCC(c2nc3ccccc3s2)CC1`: inactive: 113%; `Cc1ccc2c(c1)c1c(c(=O)n(-c3ccccc3C)c(=O)n1Cc1cccc(F)c1)n2C`: inactive: 126%.
Next, `Cc1ccc(Cl)cc1NC(=O)C(NS(=O)(=O)c1ccc2c(c1)CCC(=O)N2)c1ccccc1` (stereo unspecified): inactive: 70%; `CC1=C(c2ccc(F)cc2)S(=O)(=O)NC1=NCc1ccccc1Cl`: inactive: 136%; `CC(C)(C)C(=O)Nc1ccc2nc(SCc3ccccc3)sc2c1`: inactive: 82%.
On to `CCc1ccc(NCc2cc3cc(OC)c(OC)cc3n(CC(=O)Nc3ccc(F)cc3)c2=O)cc1`, for which the survival was inactive: 65%.
With `Cc1cccc(NC(=O)CC2C(=O)OCCN2Cc2ccccc2)c1` (stereo unspecified) the figure was inactive: 137%; with `NCC1Cc2ccccc2O1` (stereo unspecified), inactive: 99%.
With `CCC(=O)N1CCc2cc(S(=O)(=O)NC(Cc3ccccc3)C(=O)NCc3cccc(OC)c3)ccc21` (stereo unspecified) the figure was inactive: 79%; with `COc1ccc(-c2cn3nc(N4CCCC(C(=O)NCCCOC(C)C)C4)sc3n2)cc1` (stereo unspecified), inactive: 68%.
Next, `Cc1ccccc1C(=O)NC(=O)Nc1ccc(-n2nc(C(F)(F)F)cc2C(F)(F)F)cc1`: inactive: 79%; `COc1cccc(CNC(=O)CCn2c(=O)c3cccn3c3cccnc32)c1`: inactive: 87%; `COc1ccc2cc(CNc3ccccc3)c(=O)n(CC(=O)Nc3ccc(C(C)=O)cc3)c2c1`: inactive: 54%.
With `CCCN(CCC)c1cc(C)nc2nc(-c3ccc(Cl)cc3)nn12`, the survival is inactive: 87%.
Next, `Cc1ccc(C(=O)CSc2nc(-c3ccccc3)nc3c2CCCC3)cc1C`: inactive: 19%; `COc1ccc(-c2csc3ncnc(Nc4cccc(F)c4)c23)cc1`: active: -3%.
With `CC(=O)c1ccc(NC(=O)CC2Sc3ccccc3NC2=O)cc1` (stereo unspecified) the figure was inactive: 78%.
With `Cc1cc(Oc2nc3ccccn3c(=O)c2/C=C(\C#N)c2nc3ccccc3s2)ccc1Cl`, the survival is inactive: 65%.
Next, `CC1=C(C(=O)Nc2ccc(C)cc2C)C(c2cccs2)n2nc(SCc3ccc(Cl)cc3)nc2N1` (stereo unspecified): inactive: 83%; `Cc1ccc(NC(=O)C2CCN(C(=O)c3cnn(-c4ccccc4)c3-n3cccc3)CC2)cc1Cl`: inactive: 71%.
With `Cc1ccc(Nc2nc(C(N)=O)c(NC(=O)c3ccccc3Br)s2)cc1` the figure was inactive: 71%; with `Cc1ccc(CSc2nc3cccnc3n2Cc2ccc(C(=O)NCc3cccs3)cc2)cc1`, inactive: 45%.
With `Cc1nc2nc(NC(=O)C(C)C)[nH]n2c(=O)c1Cc1ccccc1` the figure was inactive: 88%; with `ON(Cn1nnc2ccccc21)Cn1nnc2ccccc21`, inactive: 113%; with `CC(CNC(=O)Cn1c(-c2cccs2)cc2cc(Cl)ccc21)c1ccccc1` (stereo unspecified), inactive: 73%.
As to `COc1cc(Cl)c(C)cc1NC(=O)CCn1cnc2onc(-c3ccc(F)cc3)c2c1=O`, the survival is inactive: 73%.
Next, `COCC(C)NS(=O)(=O)c1ccc(N2CCCCS2(=O)=O)cc1` (stereo unspecified): inactive: 85%; `CCN1C(C(=O)c2ccccc2)=C(NC(=O)c2ccc(Cl)cc2)c2ccccc2S1(=O)=O`: inactive: 94%.
Next, `COc1ccc(-n2nnnc2SCC(=O)N2CCCCC2C)cc1` (stereo unspecified): inactive: 110%; `CCOC(=O)c1ccc(NC(=O)c2sc3nc4n(c(=O)c3c2C)CCC4)cc1`: inactive: 119%; `O=C(NCc1ccccc1)N(Cc1cccnc1)Cc1cc2cc3c(cc2[nH]c1=O)OCCO3`: inactive: 102%.
Next, `Cc1ccc(C)c(S(=O)(=O)c2cn(Cc3ccccc3)c3cc(N4CCCC4)c(F)cc3c2=O)c1`: inactive: 89%; `CCOc1ccc(NC(=O)Cn2c(=O)n(CC(=O)NCCc3ccccc3)c(=O)c3sccc32)cc1`: inactive: 85%.
For `Cc1ccc2c(CC(=O)Nc3c(C(=O)c4ccc(F)cc4)oc4ccccc34)coc2c1C`, the survival was inactive: 111%.
`CC(C)c1ccc(NC(=O)C(Cc2ccccc2)n2cccc2)cc1` (stereo unspecified): the survival was active: 13%.
Next, `Cc1cccc(C)c1NC(=O)c1cc(S(=O)(=O)N2CCCc3ccccc32)ccc1F`: inactive: 140%.
Regarding `COc1cccc(C(=O)NCCc2sc(-c3cccc(C)c3)nc2C)c1`, the survival was inactive: 70%.
With `Cc1ccc(-n2ccn(CC(=O)c3ccc(F)cc3)c(=O)c2=O)cc1C` the figure was inactive: 97%.
As for `CC(=O)N1CCCc2cc(S(=O)(=O)Nc3ccc(OC(F)(F)F)cc3)ccc21`, the survival was inactive: 71%.
As to `COc1cccc(NC(=O)c2oc3ccccc3c2NC(=O)c2ccc(OC(C)C)cc2)c1`, the survival was inactive: 65%.
Next, `CC(=O)Nc1nonc1-c1nnc(SCC(=O)Nc2c(C)cccc2C)n1-c1ccccc1`: inactive: 82%; `CCn1cc(C(=O)NCc2ccc(Cl)cc2)c(=O)c2cc(S(=O)(=O)N3CCc4ccccc4C3)ccc21`: inactive: 89%; `CCOC(=O)c1ccc(N2C(=O)c3[nH]nc(-c4ccccc4)c3C2c2ccc(C(C)C)cc2)cc1` (stereo unspecified): inactive: 100%.
With `COc1ccc2c(CNCCc3ccco3)c(C(=O)O)n(Cc3ccc(F)cc3)c2c1` the figure was inactive: 84%.
Next, `COc1ccc2nc(N3CCN(C(=O)CS(=O)(=O)c4ccc(C)cc4)CC3)sc2c1`: inactive: 131%; `COc1ccc(C)cc1NC1(c2ccccc2)C(=O)c2ccccc2C1=O`: inactive: 63%; `COc1ccc(OC)c(N(C)S(=O)(=O)c2ccc3c(c2)NC(=O)CC(=O)N3)c1`: inactive: 75%.
For `CN(C)c1ccc(NC(=O)CC(NCc2cccnc2)C(=O)O)cc1` (stereo unspecified), the survival is inactive: 71%.
With `Cc1ccccc1NC(=O)c1sc2nc3n(c(=O)c2c1C)N=C(c1ccccc1)CS3` the figure was inactive: 94%; with `Cc1ccccc1NC(=O)NC1(C(=O)N2CCc3ccccc32)CCCCC1`, inactive: 98%; with `O=c1c(-c2cc(-c3ccccc3)nc3c2COc2ccc(Cl)cc2-3)coc2ccccc12`, inactive: 75%.
With `Cc1ccc(NC(=O)CCCn2c(=O)c3cccn3c3cccnc32)c(C)c1` the figure was inactive: 88%.
On to `COc1cccc(CNc2sc3c(c2C(=O)Nc2ccc(OC)cc2OC)CCC3)c1`, for which the survival is inactive: 73%.
Next, `CCC(Sc1nc2nccnc2c(=O)n1Cc1ccc(Cl)cc1)C(=O)NC1CCCCC1` (stereo unspecified): inactive: 26%.
